According to PMC10759634:
These are yes or no findings as the source states them, for the method shown. Binding seen in cells or lysates may run through a third protein. Some binding calls cover weakened binding; strength is not graded here. Tags and fused reporters may be left off the sequences shown.

The chains behind the UniProt entries cited, without tags or fusion partners. Where a name states a change or a piece, a line headed by the entry shows the natural chain unless it says otherwise. A line that says so, or that is headed by a name, gives the form on record, which may keep a tag or linker. Residues count along the entry.
UniProt P04150: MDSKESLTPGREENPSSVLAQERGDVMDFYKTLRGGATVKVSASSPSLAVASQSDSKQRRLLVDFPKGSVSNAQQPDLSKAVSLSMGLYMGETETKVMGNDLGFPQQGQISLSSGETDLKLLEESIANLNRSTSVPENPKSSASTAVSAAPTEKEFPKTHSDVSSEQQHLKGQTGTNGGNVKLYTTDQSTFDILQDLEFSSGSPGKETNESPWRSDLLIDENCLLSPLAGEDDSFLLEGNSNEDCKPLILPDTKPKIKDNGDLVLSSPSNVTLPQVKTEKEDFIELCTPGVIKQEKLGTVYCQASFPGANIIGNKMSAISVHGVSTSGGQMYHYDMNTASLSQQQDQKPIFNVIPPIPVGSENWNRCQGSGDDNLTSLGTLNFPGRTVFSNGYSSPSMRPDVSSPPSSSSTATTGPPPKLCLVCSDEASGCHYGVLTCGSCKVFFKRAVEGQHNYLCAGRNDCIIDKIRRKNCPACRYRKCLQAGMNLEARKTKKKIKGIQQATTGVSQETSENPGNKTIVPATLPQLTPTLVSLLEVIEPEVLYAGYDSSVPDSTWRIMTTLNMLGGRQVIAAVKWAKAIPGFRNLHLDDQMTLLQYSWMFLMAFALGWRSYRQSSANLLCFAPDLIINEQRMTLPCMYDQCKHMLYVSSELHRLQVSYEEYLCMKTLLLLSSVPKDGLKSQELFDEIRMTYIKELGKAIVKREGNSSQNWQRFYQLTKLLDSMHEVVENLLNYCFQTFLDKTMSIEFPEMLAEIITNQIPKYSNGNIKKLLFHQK
MYC-G9a SET (Q9Z148, residues 1091-1208): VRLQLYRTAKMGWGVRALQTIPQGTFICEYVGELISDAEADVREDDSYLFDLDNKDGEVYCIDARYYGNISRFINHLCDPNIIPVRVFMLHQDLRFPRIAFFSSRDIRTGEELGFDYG
Myc-G9a WT (Q9Z148-2, form named): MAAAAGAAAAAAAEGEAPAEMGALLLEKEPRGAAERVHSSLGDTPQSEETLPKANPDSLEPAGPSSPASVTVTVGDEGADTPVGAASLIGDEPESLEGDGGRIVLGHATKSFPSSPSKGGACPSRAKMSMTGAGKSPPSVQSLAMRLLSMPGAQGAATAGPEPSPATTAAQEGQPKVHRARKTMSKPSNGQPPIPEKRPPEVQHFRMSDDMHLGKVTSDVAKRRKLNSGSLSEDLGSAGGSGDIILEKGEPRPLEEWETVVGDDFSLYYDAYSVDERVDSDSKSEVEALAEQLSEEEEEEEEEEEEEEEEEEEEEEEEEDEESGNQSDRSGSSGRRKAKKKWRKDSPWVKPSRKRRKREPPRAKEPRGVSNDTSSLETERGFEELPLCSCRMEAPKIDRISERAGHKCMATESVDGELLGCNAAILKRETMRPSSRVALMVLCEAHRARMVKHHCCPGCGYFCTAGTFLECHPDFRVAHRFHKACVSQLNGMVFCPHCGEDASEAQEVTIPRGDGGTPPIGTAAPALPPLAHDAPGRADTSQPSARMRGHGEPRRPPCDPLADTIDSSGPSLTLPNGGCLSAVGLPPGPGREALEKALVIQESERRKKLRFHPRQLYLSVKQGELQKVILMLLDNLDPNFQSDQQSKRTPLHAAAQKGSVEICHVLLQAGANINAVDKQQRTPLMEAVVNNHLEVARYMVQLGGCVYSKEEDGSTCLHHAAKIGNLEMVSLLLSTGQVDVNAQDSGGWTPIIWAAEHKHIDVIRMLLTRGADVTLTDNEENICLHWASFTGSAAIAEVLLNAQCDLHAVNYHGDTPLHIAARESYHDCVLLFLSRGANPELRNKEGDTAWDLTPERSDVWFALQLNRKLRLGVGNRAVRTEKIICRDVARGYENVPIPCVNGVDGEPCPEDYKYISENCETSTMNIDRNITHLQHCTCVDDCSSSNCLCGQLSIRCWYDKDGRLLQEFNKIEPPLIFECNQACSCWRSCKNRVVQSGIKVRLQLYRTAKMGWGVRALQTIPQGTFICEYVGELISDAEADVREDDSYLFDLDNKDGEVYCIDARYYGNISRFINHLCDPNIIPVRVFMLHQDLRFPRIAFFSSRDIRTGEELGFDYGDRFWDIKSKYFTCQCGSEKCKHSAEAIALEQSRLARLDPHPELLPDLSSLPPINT

T1: GST-G9a (aa 1-280) (human) (UniProt Q96KQ7)
T1 sequence: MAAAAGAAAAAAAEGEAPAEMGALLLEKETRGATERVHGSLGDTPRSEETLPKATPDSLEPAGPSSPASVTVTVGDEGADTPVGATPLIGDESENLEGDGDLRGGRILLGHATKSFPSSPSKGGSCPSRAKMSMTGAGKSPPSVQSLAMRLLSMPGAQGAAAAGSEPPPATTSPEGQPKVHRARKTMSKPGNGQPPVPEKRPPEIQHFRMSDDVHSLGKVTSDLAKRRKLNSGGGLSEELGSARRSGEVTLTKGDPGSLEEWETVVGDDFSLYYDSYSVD

T2: Flag-mPrdm12 WT (mouse) (UniProt A2AJ77)
T2 sequence: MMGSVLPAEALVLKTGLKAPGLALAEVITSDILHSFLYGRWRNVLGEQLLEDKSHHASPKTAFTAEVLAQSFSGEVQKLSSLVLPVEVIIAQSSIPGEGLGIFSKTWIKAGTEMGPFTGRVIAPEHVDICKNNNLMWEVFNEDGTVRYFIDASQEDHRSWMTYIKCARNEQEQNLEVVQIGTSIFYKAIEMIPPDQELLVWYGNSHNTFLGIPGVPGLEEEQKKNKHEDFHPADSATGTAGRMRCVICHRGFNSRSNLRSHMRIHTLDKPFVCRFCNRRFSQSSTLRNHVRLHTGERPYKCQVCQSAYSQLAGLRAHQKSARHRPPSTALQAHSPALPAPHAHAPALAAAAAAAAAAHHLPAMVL

B1: full length Flag-human Prdm12 (protein, UniProt Q9H4Q4 1-367)
chain: MMGSVLPAEALVLKTGLKAPGLALAEVITSDILHSFLYGRWRNVLGEQLFEDKSHHASPKTAFTAEVLAQSFSGEVQKLSSLVLPAEVIIAQSSIPGEGLGIFSKTWIKAGTEMGPFTGRVIAPEHVDICKNNNLMWEVFNEDGTVRYFIDASQEDHRSWMTYIKCARNEQEQNLEVVQIGTSIFYKAIEMIPPDQELLVWYGNSHNTFLGIPGVPGLEEDQKKNKHEDFHPADSAAGPAGRMRCVICHRGFNSRSNLRSHMRIHTLDKPFVCRFCNRRFSQSSTLRNHVRLHTGERPYKCQVCQSAYSQLAGLRAHQKSARHRPPSTALQAHSPALPAPHAHAPALAAAAAAAAAAAAHHLPAMVL

Legend:
[1] = target: GST-G9a (aa 200–1210) (human) (UniProt Q96KQ7); assay: pull-down; GST or GST fused to hG9a fragments bound to glutathione-agarose beads, incubated with in vitro synthesized Flag-tagged protein; bound protein detected by immunoblot with anti-Flag; only the target purified
[2] = target: T1, GST-G9a (aa 1-280) (human); assay: as above
Flag-mPrdm12 WT (mouse) = target: T2, Flag-mPrdm12 WT (mouse); assay: co-IP; HEK293T cells co-transfected; lysis in IPH buffer (150 mM NaCl, 5 mM EDTA pH 8.0, 50 mM Tris pH 8.0, 1% NP-40); immunoprecipitation with anti-Flag antibodies overnight at 4°C, Protein A Sepharose; western blot with anti-Flag or anti-Myc

| Molecule | binding [1] | binding [2] | binding (Flag-mPrdm12 WT (mouse)) |
| --- | --- | --- | --- |
| Flag human glucocorticoid receptor protein (hGR) (from UniProt P04150 1-777) | binds | binds |  |
| MYC-G9a SET (from UniProt Q9Z148 1091-1208) (domain or fragment) |  |  | binds |
| Myc-G9a WT (from UniProt Q9Z148-2 1-1172) |  |  | binds |
| B1 | binds | no binding |  |
